# Experimental data from the supplement of paper PMC8728848.
# The other results are listed elsewhere or left out.
# How the values were obtained:
# Assay in all cases: glycan array binding signal (z-score within array); higher = stronger binding
# Settings in all cases: glycan notation: IUPAC condensed, linker removed
# [1] = target: Gal(b1-4)GlcNAc(b1-3)Gal(b1-4)GlcNAc(b1-3)Gal(b1-4)GlcNAc
# Method in brief: (§1)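 From the Consortium for Functional Glycomics database, 3228 arrays were curated, keeping only those whose protein sequence was available. Binding is given as a within-array Z-score averaged across arrays sharing a protein sequence and across linkers. Negative Z-scores can be read as non-binding.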
# [2] = target: Gal(b1-4)GlcNAc(b1-3)Gal(b1-4)[Fuc(a1-3)]GlcNAc(b1-3)Gal(b1-4)[Fuc(a1-3)]GlcNAc
# Method in brief: as §1
# [3] = target: Gal(b1-4)GlcNAc(b1-3)GalNAc
# Method in brief: as §1
# [4] = target: Gal(b1-4)GlcNAc(b1-3)[Gal(b1-4)GlcNAc(b1-6)]Gal(b1-4)GlcNAc
# Method in brief: as §1
# [5] = target: Gal(b1-4)GlcNAc(b1-3)[GlcNAc(b1-6)]Gal(b1-4)GlcNAc
# Method in brief: as §1
# [6] = target: Gal(b1-4)GlcNAc(b1-6)Gal(b1-4)GlcNAc
# Method in brief: as §1
# [7] = target: Gal(b1-4)GlcNAc(b1-6)Gal(b1-4)GlcNAc(b1-6)GalNAc
# Method in brief: as §1
# [8] = target: Gal(b1-4)GlcNAc(b1-6)GalNAc
# Method in brief: as §1
# [9] = target: Gal(b1-4)GlcNAc(b1-6)[Gal(b1-3)]GalNAc
# Method in brief: as §1
# [10] = target: Gal3S(b1-3)GalNAc
# Method in brief: as §1
# [11] = target: Gal3S(b1-3)GlcNAc
# Method in brief: as §1
# [12] = target: Gal3S(b1-3)[Fuc(a1-4)]GlcNAc
# Method in brief: as §1
# [13] = target: Gal3S(b1-4)Glc
# Method in brief: as §1
# [14] = target: Gal3S(b1-4)Glc6S
# Method in brief: as §1
# [15] = target: Gal3S(b1-4)GlcNAc
# Method in brief: as §1
# [16] = target: Gal3S(b1-4)GlcNAc6S
# Method in brief: as §1
# [17] = target: Gal3S(b1-4)[Fuc(a1-3)]Glc
# Method in brief: as §1
# [18] = target: Gal3S4S(b1-4)GlcNAc
# Method in brief: as §1
# [19] = target: Gal3S6S(b1-4)GlcNAc
# Method in brief: as §1
# [20] = target: Gal3S6S(b1-4)GlcNAc6S
# Method in brief: as §1
# [21] = target: Gal4S(b1-4)GlcNAc
# Method in brief: as §1
# [22] = target: Gal4S6S(b1-4)GlcNAc
# Method in brief: as §1
# [23] = target: Gal6S(b1-4)Glc
# Method in brief: as §1
# [24] = target: Gal6S(b1-4)Glc6S
# Method in brief: as §1
# [25] = target: Gal6S(b1-4)GlcNAc
# Method in brief: as §1
# [26] = target: Gal6S(b1-4)GlcNAc6S
# Method in brief: as §1
# [27] = target: GalNAc(a1-3)Gal
# Method in brief: as §1
# [28] = target: GalNAc(a1-3)GalNAc
# Method in brief: as §1
# [29] = target: GalNAc(b1-3)Gal
# Method in brief: as §1
# [30] = target: GalNAc(b1-3)Gal(a1-4)Gal(b1-4)GlcNAc
# Method in brief: as §1
# [31] = target: GalNAc(b1-3)GalNAc
# Method in brief: as §1
# [32] = target: GalNAc(b1-4)GlcNAc
# Method in brief: as §1
# [33] = target: Glc(a1-4)Glc
# Method in brief: as §1
# [34] = target: Glc(a1-6)Glc(a1-6)Glc
# Method in brief: as §1
# [35] = target: Glc(b1-4)Glc
# Method in brief: as §1
# [36] = target: Glc(b1-6)Glc
# Method in brief: as §1
# [37] = target: GlcA(b1-3)Gal
# Method in brief: as §1
# [38] = target: GlcA(b1-3)GlcNAc
# Method in brief: as §1
# [39] = target: GlcA(b1-6)Gal
# Method in brief: as §1
# [40] = target: GlcNAc(a1-3)Gal(b1-4)GlcNAc
# Method in brief: as §1
# [41] = target: GlcNAc(a1-6)Gal(b1-4)GlcNAc
# Method in brief: as §1
# [42] = target: GlcNAc(b1-2)Gal(b1-3)GalNAc
# Method in brief: as §1
# [43] = target: GlcNAc(b1-2)Man(a1-3)[GlcNAc(b1-2)Man(a1-6)]Man(b1-4)GlcNAc(b1-4)GlcNAc
# Method in brief: as §1
# [44] = target: GlcNAc(b1-3)Gal
# Method in brief: as §1
# [45] = target: GlcNAc(b1-3)Gal(b1-3)GalNAc
# Method in brief: as §1
# [46] = target: GlcNAc(b1-3)Gal(b1-4)Glc
# Method in brief: as §1
# [47] = target: GlcNAc(b1-3)Gal(b1-4)GlcNAc
# Method in brief: as §1
# [48] = target: GlcNAc(b1-3)Gal(b1-4)GlcNAc(b1-3)Gal(b1-4)GlcNAc
# Method in brief: as §1
# [49] = target: GlcNAc(b1-3)GalNAc
# Method in brief: as §1
# [50] = target: GlcNAc(b1-3)Man
# Method in brief: as §1
# [51] = target: GlcNAc(b1-3)[GlcNAc(b1-4)][GlcNAc(b1-6)]GlcNAc
# Method in brief: as §1
# [52] = target: GlcNAc(b1-3)[GlcNAc(b1-6)]Gal(b1-4)GlcNAc
# Method in brief: as §1
# [53] = target: GlcNAc(b1-3)[GlcNAc(b1-6)]GalNAc
# Method in brief: as §1
# [54] = target: GlcNAc(b1-4)Gal(b1-4)GlcNAc
# Method in brief: as §1
# [55] = target: GlcNAc(b1-4)GlcNAc
# Method in brief: as §1
# [56] = target: GlcNAc(b1-4)GlcNAc(b1-4)GlcNAc
# Method in brief: as §1
# [57] = target: GlcNAc(b1-4)GlcNAc(b1-4)GlcNAc(b1-4)GlcNAc(b1-4)GlcNAc
# Method in brief: as §1
# [58] = target: GlcNAc(b1-4)GlcNAc(b1-4)GlcNAc(b1-4)GlcNAc(b1-4)GlcNAc(b1-4)GlcNAc
# Method in brief: as §1
# [59] = target: GlcNAc(b1-4)[GlcNAc(b1-6)]GalNAc
# Method in brief: as §1
# [60] = target: GlcNAc(b1-6)Gal(b1-4)GlcNAc
# Method in brief: as §1
# [61] = target: GlcNAc(b1-6)GalNAc
# Method in brief: as §1
# [62] = target: GlcNAc3Prop(b1-4)GlcNAc
# Method in brief: as §1
# [63] = target: Kdn(a2-3)Gal(b1-3)GlcNAc
# Method in brief: as §1
# [64] = target: Kdn(a2-3)Gal(b1-4)GlcNAc
# Method in brief: as §1
# [65] = target: Man(a1-2)Man(a1-2)Man(a1-3)Man
# Method in brief: as §1
# [66] = target: Man(a1-2)Man(a1-2)Man(a1-6)[Man(a1-3)]Man
# Method in brief: as §1
# [67] = target: Man(a1-2)Man(a1-3)Man
# Method in brief: as §1
# [68] = target: Man(a1-2)Man(a1-3)[Man(a1-2)Man(a1-6)]Man
# Method in brief: as §1
# [69] = target: Man(a1-2)Man(a1-3)[Man(a1-2)Man(a1-6)]Man(a1-6)[Man(a1-2)Man(a1-2)Man(a1-3)]Man
# Method in brief: as §1
# [70] = target: Man(a1-2)Man(a1-3)[Man(a1-2)Man(a1-6)]Man(a1-6)[Man(a1-2)Man(a1-2)Man(a1-3)]Man(b1-4)GlcNAc(b1-4)GlcNAc
# Method in brief: as §1
# [71] = target: Man(a1-2)Man(a1-3)[Man(a1-6)]Man(a1-6)[Man(a1-2)Man(a1-3)]Man(b1-4)GlcNAc(b1-4)GlcNAc
# Method in brief: as §1
# [72] = target: Man(a1-2)Man(a1-6)[Man(a1-3)]Man(a1-6)[Man(a1-2)Man(a1-2)Man(a1-3)]Man
# Method in brief: as §1
# [73] = target: Man(a1-2)Man(a1-6)[Man(a1-3)]Man(a1-6)[Man(a1-2)Man(a1-2)Man(a1-3)]Man(b1-4)GlcNAc(b1-4)GlcNAc
# Method in brief: as §1
# [74] = target: Man(a1-3)[Man(a1-6)]Man
# Method in brief: as §1
binder,measurement,setting,value
"SLR2P2A3 (Tachypleus tridentatus), TAL2_TACTR (protein) MEKGTPPTHDSDNWMGRAKKIGNGGWNQFQFLFFDPNGYLYAVSKDKLYKASPPQSDTDNWIARATEIGSGGWSGSKFLFFHPNGYLYAVHGQRLYKALPPVSNQD",glycan array binding signal (z-score),[1],-0.476
same,glycan array binding signal (z-score),[2],-0.362
same,glycan array binding signal (z-score),[3],0.121
same,glycan array binding signal (z-score),[4],-0.244
same,glycan array binding signal (z-score),[5],-0.364
same,glycan array binding signal (z-score),[6],-0.159
same,glycan array binding signal (z-score),[7],-0.529
same,glycan array binding signal (z-score),[8],3.21
same,glycan array binding signal (z-score),[9],0.245
same,glycan array binding signal (z-score),[10],-0.534
same,glycan array binding signal (z-score),[11],-0.234
same,glycan array binding signal (z-score),[12],0.058
same,glycan array binding signal (z-score),[13],-0.109
same,glycan array binding signal (z-score),[14],0.231
same,glycan array binding signal (z-score),[15],-0.493
same,glycan array binding signal (z-score),[16],-0.09
same,glycan array binding signal (z-score),[17],0.241
same,glycan array binding signal (z-score),[18],-0.172
same,glycan array binding signal (z-score),[19],-0.389
same,glycan array binding signal (z-score),[20],-0.21
same,glycan array binding signal (z-score),[21],-0.394
same,glycan array binding signal (z-score),[22],-0.119
same,glycan array binding signal (z-score),[23],-0.187
same,glycan array binding signal (z-score),[24],0.197
same,glycan array binding signal (z-score),[25],-0.167
same,glycan array binding signal (z-score),[26],0.845
same,glycan array binding signal (z-score),[27],6.13
same,glycan array binding signal (z-score),[28],3.69
same,glycan array binding signal (z-score),[29],-0.208
same,glycan array binding signal (z-score),[30],-0.055
same,glycan array binding signal (z-score),[31],-0.248
same,glycan array binding signal (z-score),[32],-0.025
same,glycan array binding signal (z-score),[33],0.209
same,glycan array binding signal (z-score),[34],-0.114
same,glycan array binding signal (z-score),[35],0.132
same,glycan array binding signal (z-score),[36],0.523
same,glycan array binding signal (z-score),[37],-0.185
same,glycan array binding signal (z-score),[38],0.168
same,glycan array binding signal (z-score),[39],-0.493
same,glycan array binding signal (z-score),[40],5.44
same,glycan array binding signal (z-score),[41],6.84
same,glycan array binding signal (z-score),[42],-0.506
same,glycan array binding signal (z-score),[43],-0.274
same,glycan array binding signal (z-score),[44],-0.35
same,glycan array binding signal (z-score),[45],0.326
same,glycan array binding signal (z-score),[46],5.09
same,glycan array binding signal (z-score),[47],-0.172
same,glycan array binding signal (z-score),[48],-0.322
same,glycan array binding signal (z-score),[49],-0.341
same,glycan array binding signal (z-score),[50],-0.18
same,glycan array binding signal (z-score),[51],-0.089
same,glycan array binding signal (z-score),[52],-0.296
same,glycan array binding signal (z-score),[53],-0.094
same,glycan array binding signal (z-score),[54],-0.305
same,glycan array binding signal (z-score),[55],-0.18
same,glycan array binding signal (z-score),[56],-0.129
same,glycan array binding signal (z-score),[57],-0.041
same,glycan array binding signal (z-score),[58],0.174
same,glycan array binding signal (z-score),[59],-0.545
same,glycan array binding signal (z-score),[60],-0.321
same,glycan array binding signal (z-score),[61],3.83
same,glycan array binding signal (z-score),[62],-0.508
same,glycan array binding signal (z-score),[63],-0.164
same,glycan array binding signal (z-score),[64],-0.323
same,glycan array binding signal (z-score),[65],-0.363
same,glycan array binding signal (z-score),[66],-0.339
same,glycan array binding signal (z-score),[67],-0.223
same,glycan array binding signal (z-score),[68],-0.503
same,glycan array binding signal (z-score),[69],-0.165
same,glycan array binding signal (z-score),[70],0.218
same,glycan array binding signal (z-score),[71],-0.177
same,glycan array binding signal (z-score),[72],0.185
same,glycan array binding signal (z-score),[73],-0.413
same,glycan array binding signal (z-score),[74],-0.503
